Laboratory results as given in the supplement of paper PMC12340641.
The full ranking holds about 1,000 compounds; the median of “relative growth recovery (pomalidomide 10 uM = 100%, DMSO = 0%)” is about -1.6, and the highest 2% start at about 21. The list shows a part of the results.

system: HEK293FT dCK*-IKZF1; test: relative growth recovery (pomalidomide 10 uM = 100%, DMSO = 0%); higher = more growth rescue (IKZF1 fusion degradation); settings: compound concentration: 5 uM; AraC concentration: 0.3 uM; overnight pretreatment + 4 days AraC
Procedure: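 Growth recovery screen of the molecular-glue-like (Specs) library. HEK293FT cells expressing a dCK*-IKZF1 fusion (primary) or dCK* alone (counter) were pretreated overnight with compound at 5 uM, then given 0.3 uM AraC for 4 days. Hoechst nuclei were counted by imaging. Primary: normalised to pomalidomide (100%) and DMSO (0%), mean of 2 replicates. Counter: normalised to no-AraC (100%) and AraC+DMSO (0%), single replicate.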

| Compound | relative growth recovery |
| --- | --- |
| Cc1cc(OCC(=O)Nc2ccc(S(=O)(=O)Nc3ncccn3)cc2)cc(C)c1Cl | -2.15% |
| Cc1cnc(Nc2cccc(C3CCN(CC(=O)Nc4c(F)cccc4F)CC3)n2)s1 | -13.4% |
| COc1ccc(CC(=O)Nc2ccc(S(=O)(=O)Nc3nccc(C)n3)cc2)cc1 | -17.5% |
| COc1ccc(C(=O)Nc2ccc(S(=O)(=O)Nc3cc(C)nc(C)n3)cc2)cc1 | -9.89% |
| CC(=O)N1CCCC(c2csc(Nc3ccc(C)cn3)n2)C1 (configuration not stated) | -5.95% |
| COc1cc(NS(=O)(=O)c2ccc(Nc3nc(-c4c(C)nc5ncccn45)cs3)cc2)nc(OC)n1 | -0.58% |
| Cc1cnc(Nc2ccc(C(=O)N3CCC=C(CCC(=O)NO)C3)cn2)s1 | 0.16% |
| Cc1ccc(N2CC(C(=O)Nc3ccc(S(=O)(=O)Nc4ncccn4)cc3)CC2=O)cc1C (configuration not stated) | -1.26% |
| CC(=O)NC1(C(=O)N2CCC(c3cccc(Nc4ncc(C)s4)n3)CC2)CCCCC1 | -20.7% |
| Cc1cnc(Nc2cccc(C3(C(N)=O)CCN(C(=O)C4CCCCC4)CC3)n2)s1 | -18.2% |
| COc1cc(NS(=O)(=O)c2ccc(NC(=O)COc3ccc(C)cc3)cc2)nc(OC)n1 | 1.75% |
| CCCc1cnc(Nc2cccc(C3CCN(C(=O)[C@@H]4CCCN4CCO)CC3)n2)s1 | -17.4% |
| O=C1CCC(N2C(=O)c3cccc(N4CCN(C5CCC(C(=O)O)CC5)CC4)c3C2=O)C(=O)N1 (configuration not stated) | 1.55% |
| O=C(Nc1ccc(S(=O)(=O)Nc2ncccn2)cc1)C1COc2ccccc2O1 (configuration not stated) | -0.865% |
| O=C(C1CCCCC1)N1CCOC(c2cccc(Nc3nccs3)n2)C1 (configuration not stated) | -3.1% |
| O=C(/C=C/c1ccccc1)N1CCCC(c2csc(Nc3ccccn3)n2)C1 (configuration not stated) | 31.2% |
| O=C(C1CCCCC1)N1CCOC(c2cccc(Nc3ncc(Cc4ccccc4Cl)s3)n2)C1 (configuration not stated) | 1.11% |
| Nc1nc(N)c2ncn([C@@H]3CCC[C@@H](N)[C@H]3O)c2n1 | -2.03% |
| O=S(=O)(Nc1ccc(S(=O)(=O)Nc2ncccn2)cc1)c1ccc(F)cc1 | 1.11% |
| Cc1csc(Nc2cccc(C3CN(C(=O)CCCc4ccc(F)cc4)CCO3)n2)n1 (configuration not stated) | 25.2% |
| Cc1ccc(Cl)cc1NC(=O)CSc1nnc2c(n1)[nH]c1c(C)ccc(C)c12 | 4.4% |
| Cc1nc(Nc2cccc(C3CCN(CC(=O)NCc4ccccn4)CC3)n2)sc1C | -0.91% |
| CCCN1CC(C(=O)N2CCC(c3cccc(Nc4ncc(C)s4)n3)CC2)CC1=O (configuration not stated) | -5.35% |

| Compound | relative growth recovery |
| --- | --- |
| O=C(Nc1ccc(S(=O)(=O)Nc2ncccn2)cc1)c1cccc(Br)c1 | -4.75% |
| Cc1nc(Nc2cccc(C3CCN(C(=O)c4n[nH]c5c4CCCC5)CC3)n2)sc1C | 12.1% |
| O=C(CSc1nc2ccccc2n1Cc1ccccc1)Nc1ccccn1 | 5.77% |
| Cc1cnc(Nc2cccc(C3CN(C(=O)Cn4ccnc4)CCO3)n2)s1 (configuration not stated) | -7.95% |
| Cc1cnc(Nc2cccc(C(CO)C3CCN(C(=O)c4cccc(Cl)c4F)CC3)n2)s1 (configuration not stated) | -0.545% |
| CC(=O)Nc1ccc(S(=O)(=O)Nc2ccccn2)cc1 | -5.84% |
| Cc1cc(C)nc(NS(=O)(=O)c2ccc(NC(=O)/C=C/c3ccccc3)cc2)n1 | 2.52% |
| O=C1CCCN1CCOCC(=O)N1CCOC(c2cccc(Nc3nccs3)n2)C1 (configuration not stated) | 0.03% |
| COc1nccnc1NS(=O)(=O)c1ccc(NC(=S)NC(=O)/C=C/c2cccs2)cc1 | 0.23% |
| CC1CCc2cc(F)ccc2N1C(=O)CSc1nnc2c(n1)[nH]c1ccccc12 (configuration not stated) | -3.45% |
| CCC(=O)Nc1ccc(S(=O)(=O)Nc2ncccn2)cc1 | 3.52% |
| CC(=O)Nc1ccc(Oc2ccc3c(c2)C(=O)N(c2ccc(C)cc2)C3=O)cc1 | 0.56% |
| Cc1cc(NS(=O)(=O)c2ccc(NC(=O)COc3ccc(Cl)cc3C)cc2)nc(C)n1 | -1.09% |
| O=C(CCCOc1ccccc1)Nc1ccc(S(=O)(=O)Nc2ncccn2)cc1 | -2.81% |
| CCCOC(=O)Nc1ccc(S(=O)(=O)Nc2ncccn2)cc1 | 0.97% |
| COc1cc(NS(=O)(=O)c2ccc(N3C(=O)C=CC3=O)cc2)nc(OC)n1 | -3.17% |
| Cc1cc(CCCC(=O)N2CCCC2c2cccc(Nc3nccs3)n2)ccc1F (configuration not stated) | 2.87% |
| COC(C)(C)C(=O)N1CCCC(c2csc(Nc3ccc(C)cn3)n2)C1 (configuration not stated) | 15.9% |
| O=C1CCC(N2C(=O)c3cccc(NC[C@H]4CC[C@H](C(=O)O)CC4)c3C2=O)C(=O)N1 (some centres not stated) | 50.3% |
| Cc1nc(Nc2cccc(C3CN(C(=O)c4cccc5cccnc45)CCO3)n2)sc1C (configuration not stated) | 3.46% |
| Cc1ccnc(NS(=O)(=O)c2ccc(NC(=O)CC(C)C)cc2)n1 | 1.95% |
| O=C(COc1ccccc1Cl)Nc1ccc(S(=O)(=O)Nc2ncccn2)cc1 | 1.35% |
| Cc1nc(Nc2cccc(C3CCCN3C(=O)CCOc3cccc(F)c3)n2)sc1C (configuration not stated) | 8.19% |

| Compound | relative growth recovery |
| --- | --- |
| O=C1CCC(N2C(=O)c3cc(F)c(N4CCC(Cn5cc(C(=O)O)cn5)CC4)cc3C2=O)C(=O)N1 (configuration not stated) | -2% |
| Cc1ccnc(NS(=O)(=O)c2ccc(NC(=O)c3cc(Cl)ccc3Cl)cc2)n1 | 2.1% |
| O=C(CN1CCN(CCO)CC1)N1CCC(c2cccc(Nc3ncc(-c4ccccc4)s3)n2)CC1 | -11.2% |
| COc1ccc(-c2csc(Nc3ccc(S(=O)(=O)Nc4nc(C)cc(C)n4)cc3)n2)cc1OC | 1.99% |
| Cc1cnc(Nc2cccc(C3CN(C(=O)COc4cccc(F)c4)CCO3)n2)s1 (configuration not stated) | -0.58% |
| Cc1ccnc(Nc2nc(-c3sc(NC(=O)c4ccccc4)nc3C)cs2)c1 | 111% |
| CC(=O)N1CCCC1c1cccc(Nc2nccs2)n1 (configuration not stated) | -4.52% |
| O=C(CCc1[nH]nc2c1CCCC2)N1CCC(c2cccc(Nc3nccs3)n2)CC1 | -17.6% |
| NC(=O)CN1CCCCC1c1csc(Nc2ccccn2)n1 (configuration not stated) | 1.33% |
| COCCOCC(=O)Nc1ccc(S(=O)(=O)Nc2cc(C)nc(C)n2)cc1 | -1.1% |
| CC(CC(=O)Nc1ccc(S(=O)(=O)Nc2ncccn2)cc1)c1ccccc1 (configuration not stated) | -3.27% |
| CCCc1cnc(Nc2cccc(C3CCN(C(=O)C4CCCCN4C(=O)CN(C)C)CC3)n2)s1 (configuration not stated) | -2.86% |
| Cc1csc(Nc2cccc(C3CN(C(=O)CCc4nc(C)no4)CCO3)n2)n1 (configuration not stated) | 5.6% |
| CN(C)Cc1cnc(Nc2cccc(C3CCN(C(=O)C4CCCCC4)CC3)n2)s1 | -1.89% |
| Cc1cc(C)nc(NS(=O)(=O)c2ccc(/N=C3/NC(=O)CS3)cc2)n1 | -0.9% |
| CCc1ccc(OCC(=O)Nc2ccc(S(=O)(=O)Nc3ccccn3)cc2)cc1 | 2.62% |
| Cc1cnc(Nc2cccc(C3CCN(C(=O)C4C5C=CC(C5)C4C(=O)NCC(C)C)CC3)n2)s1 (configuration not stated) | -13.6% |
| Cc1cc(C)c(S(=O)(=O)Nc2ccc(S(=O)(=O)Nc3ncccn3)cc2)c(C)c1 | 6.84% |
| Cc1cc(C)nc(NS(=O)(=O)c2ccc(NC(=O)c3ncoc3-c3ccccc3)cc2)n1 | -1.47% |
| COc1cc(NS(=O)(=O)c2ccc(NC(=O)c3ccc(OC)c(OC)c3)cc2)nc(OC)n1 | -4.05% |
| Cc1cnc(Nc2cccc(C3CN(C(=O)CCn4cnc5ccccc54)CCO3)n2)s1 (configuration not stated) | 15.2% |
| CCCc1cnc(Nc2cccc(C3CCN(C(=O)C4COCCN4)CC3)n2)s1 (configuration not stated) | -19.6% |
| CCOc1ccccc1C(=O)Nc1ccc(S(=O)(=O)Nc2nccc(C)n2)cc1 | -17.9% |

| Compound | relative growth recovery |
| --- | --- |
| CCCc1cnc(Nc2cccc(C3CCN(C(=O)[C@@H]4CCCCN4)CC3)n2)s1 | -14.8% |
| CC(C)C(=O)N1CCOC(c2cccc(Nc3nccs3)n2)C1 (configuration not stated) | 0.125% |
| COc1nccnc1NS(=O)(=O)c1ccc(N)cc1 | -13.6% |
| Cc1cnc(Nc2cccc(C3CN(C(=O)CCOc4cccc(F)c4)CCO3)n2)s1 (configuration not stated) | 15.7% |
| Cc1ccnc(NS(=O)(=O)c2ccc(NC(=O)c3ccco3)cc2)n1 | -0.185% |
| CCC(=O)Nc1ccc(S(=O)(=O)Nc2ccccn2)cc1 | -4.31% |
| O=C(/C=C/c1ccco1)N1CCC(c2cc3ccccc3c(Nc3nccs3)n2)CC1 | -19% |
| COCCC(=O)N1CCC(c2cccc(Nc3nc(C)c(C)s3)n2)CC1 | 9.99% |
| N#Cc1ccc(Oc2ccc(N3C(=O)c4ccc(Oc5ccccc5)cc4C3=O)cc2)cc1 | -4.37% |
| COc1ccc2ccccc2c1/C=N/NS(=O)(=O)c1ccc(C)c([N+](=O)[O-])c1 | -4.38% |
| Cc1nc(Nc2cccc(C3CCCN3C(=O)C(C)(C)c3cccc(F)c3)n2)sc1C (configuration not stated) | -1.4% |
| COc1cc(SC)ccc1C(=O)Nc1ccc(S(=O)(=O)Nc2nccc(C)n2)cc1 | 5.25% |
| NC1(C(=O)N2CCC(c3cccc(Nc4ncc(-c5ccccc5)s4)n3)CC2)CC1 | -1.21% |
| Cc1nc(Nc2cccc(C3CCN(C(=O)c4ccccn4)CC3)n2)sc1C | 0.415% |
| COc1cc(NS(=O)(=O)c2ccc(NC(=O)/C=C/C(=O)O)cc2)nc(OC)n1 | 5.33% |
| O=C(Nc1ccc(S(=O)(=O)Nc2ncccn2)cc1)c1ccccc1Oc1ccccc1 | 0.03% |
| COC1CCC(C(=O)N2CCC(c3cccc(Nc4ncc(C)s4)n3)CC2)CC1 (configuration not stated) | -12.6% |
| COc1cc(NS(=O)(=O)c2ccc(N/C=C\C(=O)c3cccs3)cc2)nc(OC)n1 | -2.01% |
| CCOC(=O)c1ccc(N2C(=O)c3ccc(Oc4ccc(NC(C)=O)cc4)cc3C2=O)cc1 | -4.37% |
| CC(=O)N1CCC(Cc2cccc(Nc3nccs3)n2)CC1 | -0.085% |
| CCCc1cnc(Nc2cccc(C3CN(C(=O)Cn4c(CC(C)C)nc5ccccc54)CCO3)n2)s1 (configuration not stated) | -13.3% |
| Cc1csc(Nc2cccc(C3CCN(C(=O)Cn4nc(C)cc4C)CC3)n2)n1 | 16.9% |
| O=C(/C=C/c1cnc[nH]1)N1CCC(c2cc3ccccc3c(Nc3nccs3)n2)CC1 | -18.3% |

| Compound | relative growth recovery |
| --- | --- |
| COc1ccc(/C=C(\C#N)C(=O)Nc2ccc(S(=O)(=O)Nc3ncccn3)cc2)cc1 | -4.89% |
| COc1cc(NS(=O)(=O)c2ccc(NC(=O)c3c(OC)cccc3OC)cc2)nc(OC)n1 | -1.76% |
| O=C(O)c1ccc(N2C(=O)c3ccc(Oc4ccccc4)cc3C2=O)cc1 | -0.23% |
| COc1nccnc1NS(=O)(=O)c1ccc(NC(=S)NC(=O)c2cccnc2)cc1 | -1.5% |
| O=C(Nc1ccc(S(=O)(=O)Nc2ccccn2)cc1)c1ccc(Cl)c(Cl)c1 | -5.89% |
| Cc1cnc(Nc2cccc(C(CO)C3CCN(C(=O)C4CCCCC4)CC3)n2)s1 (configuration not stated) | 0.265% |
| COCC(=O)N1CCC(c2cccc(Nc3ncc(C)s3)n2)CC1 | -19.4% |
| Cc1ccc2[nH]nc(C(=O)N3CCCC3c3cccc(Nc4nc(C)cs4)n3)c2c1 (configuration not stated) | -0.105% |
| CC(=O)Nc1ccc(S(=O)(=O)Nc2cc(C)nc(C)n2)cc1 | -1.14% |
| O=C(C1COCCN1)N1CCC(c2cccc(Nc3ncc(Cl)s3)n2)CC1 (configuration not stated) | -20.4% |
| Cc1csc(Nc2cccc(C3CCN(CC(=O)NCc4ccccn4)CC3)n2)n1 | -8.2% |
| Cc1cnc(Nc2cccc(CC3CCN(C(=O)CO)CC3)n2)s1 | -16.9% |
| Cn1cnc(S(=O)(=O)N2CCOC(c3cccc(Nc4ncc(CNC(=O)c5cccc(F)c5)s4)n3)C2)c1 (configuration not stated) | 13.5% |
| O=[N+]([O-])c1ccc(S(=O)(=O)Nc2ccc(Cl)cn2)cc1 | -4.66% |
| Cc1cnc(Nc2cccc(C3CN(C(=O)CN(CCC(C)C)c4ccccc4)CCO3)n2)s1 (configuration not stated) | -3.83% |
| CCOc1ccccc1OCC(=O)Nc1ccc(S(=O)(=O)Nc2ncccn2)cc1 | -5.29% |
| O=C(Nc1ccc(S(=O)(=O)Nc2ncccn2)cc1)c1ccccc1Br | -3.06% |
| Cc1ccnc(NS(=O)(=O)c2ccc(N3C(=O)c4ccccc4C3=O)cc2)n1 | -0.9% |
| CC(C)c1ccc2[nH]c3nc(SCC(=O)Nc4ccc(F)cc4)nnc3c2c1 | -10.5% |
| CN(CC(=O)N1CCC(c2cccc(Nc3ncc(-c4ccccc4)s3)n2)CC1)C(=O)OC(C)(C)C | -3.15% |
